{"source": "the supplement of paper PMC11876631", "parents": {"B1": {"name": "thrC; numbered along this chain (parent)", "chain": "MKLYNLKDHNEQVSFAQAVTQGLGKNQGLFFPHDLPEFSLTEIDEMLKLDFVTRSAKILSAFIGDEIPQEILEERVRAAFAFPAPVANVESDVGCLELFHGPTLAFKDFGGRFMAQMLTHIAGDKPVTILTATSGDTGAAVAHAFYGLPNVKVVILYPRGKISPLQEKLFCTLGGNIETVAIDGDFDACQALVKQAFDDEELKVALGLNSANSINISRLLAQICYYFEAVAQLPQETRNQLVVSVPSGNFGDLTAGLLAKSLGLPVKRFIAATNVNDTVPRFLHDGQWSPKATQATLSNAMDVSQPNNWPRVEELFRRKIWQLKELGYAAVDDETTQQTMRELKELGYTSEPHAAVAYRALRDQLNPGEYGLFLGTAHPAKFKESVEAILGETLDLPKELAERADLPLLSHNLPADFAALRKLMMNHQ"}, "B2": {"name": "yqgF; numbered along this chain (parent)", "chain": "MSGTLLAFDFGTKSIGVAVGQRITGTARPLPAIKAQDGTPDWNIIERLLKEWQPDEIIVGLPLNMDGTEQPLTARARKFANRIHGRFGVEVKLHDERLSTVEARSGLFEQGGYRALNKGKVDSASAVIILESYFEQGY"}, "B3": {"name": "fes; numbered along this chain (parent)", "chain": "MTALKVGSESWWQSKHGPEWQRLNDEMFEVTFWWRDPQGSEEYSTIKRVWVYITGVTDHHQNSQPQSMQRIAGTNVWQWTTQLNANWRGSYCFIPTERDDIFSVPSPDRLELREGWRKLLPQAIADPLNLQSWKGGRGHAVSALEMPQAPLQPGWDCPQAPEIPAKEIIWKSERLKKSRRVWIFTTGDATAEERPLAVLLDGEFWAQSMPVWPVLTSLTHRQQLPPAVYVLIDAIDTTHRAHELPCNADFWLAVQQELLPLVKAIAPFSDRADRTVVAGQSFGGLSALYAGLHWPERFGCVLSQSGSYWWPHRGGQQEGVLLEKLKAGEVSAEGLRIVLEAGIREPMIMRANQALYAQLHPIKESIFWRQVDGGHDALCWRGGLMQGLIDLWQPLFHDRS"}}, "note": "± gives the standard deviation of the averaged measurements. Laboratory Escherichia coli strains with one amino-acid change in an essential protein, pooled on minimal glucose agar with carbenicillin or gentamicin at twice the control MIC (plus kanamycin and chloramphenicol for the plasmids), 48 h. Fold change of barcode share against drug-free plates; higher = less susceptible. Active = above 20 in both replicates (the paper's putatively resistant). '<' = one read or none on drug, '>' = one read or none on a drug-free plate. Shares are relative, so most strains fall below 1 when a few take over. Listed are strains with at least 15 reads on both drug-free plates, and hits; most hits rest on fewer reference reads. Replicate rank correlation about 0.5. Edits are read from barcodes."}
{"variants_of": "B1", "test": "barcode share on antibiotic plates over drug-free plates; higher = less susceptible", "details": "with Escherichia coli (laboratory strain); antibiotic: carbenicillin; 2× MIC (3.1 µg/mL)", "method": "(§1)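 A pool of E. coli strains, each edited to carry one amino-acid change in an essential protein, was grown for 48 h on minimal glucose agar with or without antibiotic; strain barcodes were sequenced; mean of two replicates.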"}
{"variant": "V279Q", "fold change of barcode share": "1.52 ± 0.16"}
{"variant": "V279P", "fold change of barcode share": "1.24 ± 0.58"}
{"variant": "V279A", "fold change of barcode share": "0.839 ± 0.18"}
{"variant": "V279D", "fold change of barcode share": "0.912 ± 0.18"}
{"variant": "L156W", "fold change of barcode share": "0.313 ± 0.13"}
{"variant": "L130Q", "fold change of barcode share": "0.33 ± 0.048"}
{"variant": "L130D", "fold change of barcode share": "> 32.8 [active]"}
{"variant": "L130P", "fold change of barcode share": "0.575 ± 0.16"}
{"variant": "L130A", "fold change of barcode share": "0.554 ± 0.28"}
{"variant": "L220Q", "fold change of barcode share": "0.463 ± 0.12"}
{"variant": "L220W", "fold change of barcode share": "0.638 ± 0.041"}
{"variant": "L220A", "fold change of barcode share": "0.436 ± 0.19"}
{"variants_of": "B1", "test": "barcode share on antibiotic plates over drug-free plates; higher = less susceptible", "details": "with Escherichia coli (laboratory strain); antibiotic: gentamicin; 2× MIC (MIC 0.45 µg/mL)", "method": "as §1"}
{"variant": "V279Q", "fold change of barcode share": "0.023 ± 0.012"}
{"variant": "V279P", "fold change of barcode share": "0.015 ± 0.0071"}
{"variant": "V279A", "fold change of barcode share": "0.0353 ± 0.046"}
{"variant": "V279D", "fold change of barcode share": "0.0105 ± 0.0054"}
{"variant": "L118Q", "fold change of barcode share": "< 0.0219"}
{"variant": "L118A", "fold change of barcode share": "< 0.0193"}
{"variant": "L130Q", "fold change of barcode share": "0.0242 ± 0.0021"}
{"variant": "L130P", "fold change of barcode share": "0.0227 ± 0.013"}
{"variant": "L130A", "fold change of barcode share": "0.0177 ± 0.014"}
{"variant": "L220Q", "fold change of barcode share": "< 0.0206"}
{"variants_of": "B2", "test": "barcode share on antibiotic plates over drug-free plates; higher = less susceptible", "details": "with Escherichia coli (laboratory strain); antibiotic: carbenicillin; 2× MIC (3.1 µg/mL)", "method": "as §1"}
{"variant": "V19A", "fold change of barcode share": "0.251 ± 0.18"}
{"variant": "V19W", "fold change of barcode share": "0.307 ± 0.1"}
{"variant": "V19Q", "fold change of barcode share": "0.65 ± 0.27"}
{"variant": "I45A", "fold change of barcode share": "0.196 ± 0.0079"}
{"variant": "I45Q", "fold change of barcode share": "0.471 ± 0.28"}
{"variant": "I45P", "fold change of barcode share": "0.15 ± 0.024"}
{"variant": "L6P", "fold change of barcode share": "0.271 ± 0.11"}
{"variant": "L6A", "fold change of barcode share": "0.421 ± 0.075"}
{"variant": "L6W", "fold change of barcode share": "0.318 ± 0.087"}
{"variant": "L6D", "fold change of barcode share": "0.387 ± 0.17"}
{"variant": "L6Q", "fold change of barcode share": "0.294 ± 0.1"}
{"variant": "I15D", "fold change of barcode share": "0.585 ± 0.031"}
{"variant": "I15Q", "fold change of barcode share": "0.303 ± 0.017"}
{"variant": "I15A", "fold change of barcode share": "0.432 ± 0.097"}
{"variant": "I15W", "fold change of barcode share": "0.332 ± 0.11"}
{"variant": "I83W", "fold change of barcode share": "0.827 ± 0.9"}
{"variant": "V17D", "fold change of barcode share": "0.442 ± 0.024"}
{"variant": "V17Q", "fold change of barcode share": "0.327 ± 0.085"}
{"variant": "V17P", "fold change of barcode share": "0.227 ± 0.0063"}
{"variant": "V17A", "fold change of barcode share": "0.218 ± 0.0076"}
{"variant": "V17W", "fold change of barcode share": "0.292 ± 0.11"}
{"variants_of": "B2", "test": "barcode share on antibiotic plates over drug-free plates; higher = less susceptible", "details": "with Escherichia coli (laboratory strain); antibiotic: gentamicin; 2× MIC (MIC 0.45 µg/mL)", "method": "as §1"}
{"variant": "V19A", "fold change of barcode share": "< 0.00812"}
{"variant": "V19W", "fold change of barcode share": "0.00704 ± 0.0041"}
{"variant": "V19Q", "fold change of barcode share": "0.0121 ± 0.0086"}
{"variant": "L130W", "fold change of barcode share": "< 0.00889"}
{"variant": "I45A", "fold change of barcode share": "< 0.0108"}
{"variant": "I45Q", "fold change of barcode share": "0.0309 ± 0.031"}
{"variant": "L6P", "fold change of barcode share": "< 0.00848"}
{"variant": "L6A", "fold change of barcode share": "0.00706 ± 0.00015"}
{"variant": "L6W", "fold change of barcode share": "< 0.00385"}
{"variant": "L6D", "fold change of barcode share": "< 0.00575"}
{"variant": "L6Q", "fold change of barcode share": "0.00763 ± 0.0053"}
{"variant": "I15D", "fold change of barcode share": "0.257 ± 0.0034"}
{"variant": "I15Q", "fold change of barcode share": "0.0135 ± 0.013"}
{"variant": "I15A", "fold change of barcode share": "0.00453 ± 0.0027"}
{"variant": "I15W", "fold change of barcode share": "0.00763 ± 0.0063"}
{"variant": "I83A", "fold change of barcode share": "< 0.0175"}
{"variant": "I83W", "fold change of barcode share": "< 0.0123"}
{"variant": "I83Q", "fold change of barcode share": "0.0306 ± 0.017"}
{"variant": "V17D", "fold change of barcode share": "0.0344 ± 0.023"}
{"variant": "V17Q", "fold change of barcode share": "< 0.00295"}
{"variant": "V17P", "fold change of barcode share": "0.0133 ± 0.0094"}
{"variant": "V17A", "fold change of barcode share": "0.0141 ± 0.012"}
{"variant": "V17W", "fold change of barcode share": "0.00323 ± 0.0021"}
{"variants_of": "B3", "test": "barcode share on antibiotic plates over drug-free plates; higher = less susceptible", "details": "with Escherichia coli (laboratory strain); antibiotic: carbenicillin; 2× MIC (3.1 µg/mL)", "method": "as §1"}
{"variant": "V338Q", "fold change of barcode share": "0.663 ± 0.43"}
{"variant": "V338W", "fold change of barcode share": "0.999 ± 0.44"}
{"variant": "V338D", "fold change of barcode share": "0.758 ± 0.19"}
{"variant": "V230A", "fold change of barcode share": "0.883 ± 0.17"}
{"variant": "V230W", "fold change of barcode share": "1.77 ± 0.23"}
{"variant": "V230D", "fold change of barcode share": "> 36.2 [active]"}
{"variant": "L302P", "fold change of barcode share": "> 55.8 [active]"}
{"variant": "L302A", "fold change of barcode share": "1.89 ± 0.45"}
{"variant": "L302Q", "fold change of barcode share": "1.97 ± 0.073"}
{"variant": "L302W", "fold change of barcode share": "> 83.1 [active]"}
{"variant": "L302D", "fold change of barcode share": "4.24 ± 0.91"}
{"variant": "I94A", "fold change of barcode share": "1.41 ± 1.1"}
{"variant": "L339W", "fold change of barcode share": "1.47 ± 0.52"}
{"variant": "L339A", "fold change of barcode share": "5.13 ± 3.8"}
{"variant": "L339P", "fold change of barcode share": "> 30.3 [active]"}
{"variant": "I183A", "fold change of barcode share": "0.583 ± 0.085"}
{"variant": "I183Q", "fold change of barcode share": "1.01 ± 0.35"}
{"variant": "I183W", "fold change of barcode share": "0.957 ± 0.46"}
{"variant": "I183P", "fold change of barcode share": "0.709 ± 0.23"}
{"variant": "L258A", "fold change of barcode share": "0.465 ± 0.25"}
{"variant": "L258W", "fold change of barcode share": "0.514 ± 0.27"}
{"variant": "L258Q", "fold change of barcode share": "0.708 ± 0.1"}
{"variant": "V301A", "fold change of barcode share": "4.2 ± 1.8"}
{"variants_of": "B3", "test": "barcode share on antibiotic plates over drug-free plates; higher = less susceptible", "details": "with Escherichia coli (laboratory strain); antibiotic: gentamicin; 2× MIC (MIC 0.45 µg/mL)", "method": "as §1"}
{"variant": "V338Q", "fold change of barcode share": "0.111 ± 0.15"}
{"variant": "V338W", "fold change of barcode share": "0.0432 ± 0.047"}
{"variant": "V338D", "fold change of barcode share": "0.0681 ± 0.063"}
{"variant": "V230A", "fold change of barcode share": "0.032 ± 0.038"}
{"variant": "V230W", "fold change of barcode share": "0.174 ± 0.15"}
{"variant": "V230Q", "fold change of barcode share": "0.138 ± 0.11"}
{"variant": "L302A", "fold change of barcode share": "0.0589 ± 0.067"}
{"variant": "L302Q", "fold change of barcode share": "0.105 ± 0.12"}
{"variant": "I94A", "fold change of barcode share": "0.023 ± 0.011"}
{"variant": "L339W", "fold change of barcode share": "0.252 ± 0.23"}
{"variant": "L339A", "fold change of barcode share": "0.0774 ± 0.06"}
{"variant": "I183D", "fold change of barcode share": "0.148 ± 0.15"}
{"variant": "I183A", "fold change of barcode share": "0.0472 ± 0.029"}
{"variant": "I183Q", "fold change of barcode share": "0.121 ± 0.15"}
{"variant": "I183W", "fold change of barcode share": "0.0282 ± 0.032"}
{"variant": "I183P", "fold change of barcode share": "0.228 ± 0.22"}
{"variant": "L258A", "fold change of barcode share": "0.0226 ± 0.018"}
{"variant": "L258W", "fold change of barcode share": "0.0444 ± 0.038"}
{"variant": "L258Q", "fold change of barcode share": "0.0413 ± 0.043"}
{"variant": "V301A", "fold change of barcode share": "0.0713 ± 0.038"}
